# The other results are listed elsewhere or left out.
# B1: LecRKVI.2 (protein)
# chain: RTTTNFAFRGFNGNQSKIRIEGAAMIKPDGLLRLTDRKSNVTGTAFYHKPVRLLNRNSTNVTIRSFSTSFVFVIIPSSSSNKGFGFTFTLSPTPYRLNAGSAQYLGVFNKENNGDPRNHVFAVEFDTVQGSRDDNTDRIGNDIGLNYNSRTSDLQEPVVYYNNDDHNKKEDFQLESGNPIQALLEYDGATQMLNVTVYPARLGFKPTKPLISQHVPKLLEIVQEEMYVGFTASTGKGQSSAHYVMGWSFSSGGERPIADVLILSELPPPPPNKAKKEGLNS
# Assays:
# Assay in all cases: glycan array binding signal (z-score within array); higher = stronger binding
# Conditions in all cases: glycan notation: IUPAC condensed, linker removed
# [1] = molecular target: Fuc(a1-2)[GalNAc(a1-3)]Gal(b1-3)GlcNAc(b1-6)GalNAc
# Method in brief: (§1)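 Glycan array binding is given as a within-array Z-score, which can be read as non-binding when negative. The arrays, 3228 of them, came from the Consortium for Functional Glycomics database and were retained only where the protein sequence was available. Z-scores were averaged across arrays of the same protein sequence at different concentrations or buffers and across linkers.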
# [2] = molecular target: Fuc(a1-2)[GalNAc(a1-3)]Gal(b1-4)Glc
# Method in brief: as §1
# [3] = molecular target: Fuc(a1-2)[GalNAc(a1-3)]Gal(b1-4)GlcNAc
# Method in brief: as §1
# [4] = molecular target: Fuc(a1-2)[GalNAc(a1-3)]Gal(b1-4)GlcNAc(b1-2)Man
# Method in brief: as §1
# [5] = molecular target: Fuc(a1-2)[GalNAc(a1-3)]Gal(b1-4)GlcNAc(b1-2)Man(a1-3)[Fuc(a1-2)[GalNAc(a1-3)]Gal(b1-4)GlcNAc(b1-2)Man(a1-6)]Man(b1-4)GlcNAc(b1-4)GlcNAc
# Method in brief: as §1
# [6] = molecular target: Fuc(a1-2)[GalNAc(a1-3)]Gal(b1-4)GlcNAc(b1-2)Man(a1-3)[Fuc(a1-2)[GalNAc(a1-3)]Gal(b1-4)GlcNAc(b1-2)Man(a1-6)]Man(b1-4)GlcNAc(b1-4)[Fuc(a1-6)]GlcNAc
# Method in brief: as §1
# [7] = molecular target: Fuc(a1-2)[GalNAc(a1-3)]Gal(b1-4)GlcNAc(b1-3)Gal(b1-4)GlcNAc
# Method in brief: as §1
# [8] = molecular target: Fuc(a1-2)[GalNAc(a1-3)]Gal(b1-4)GlcNAc(b1-3)Gal(b1-4)GlcNAc(b1-3)Gal(b1-4)GlcNAc
# Method in brief: as §1
# [9] = molecular target: Fuc(a1-2)[GalNAc(a1-3)]Gal(b1-4)GlcNAc(b1-3)GalNAc
# Method in brief: as §1
# [10] = molecular target: Fuc(a1-2)[GalNAc(a1-3)]Gal(b1-4)GlcNAc(b1-3)[Fuc(a1-2)[GalNAc(a1-3)]Gal(b1-4)GlcNAc(b1-6)]GalNAc
# Method in brief: as §1
# [11] = molecular target: Fuc(a1-2)[GalNAc(a1-3)]Gal(b1-4)GlcNAc(b1-6)GalNAc
# Method in brief: as §1
# [12] = molecular target: Fuc(a1-2)[GalNAc(a1-3)]Gal(b1-4)[Fuc(a1-3)]GlcNAc
# Method in brief: as §1
# [13] = molecular target: Fuc(a1-2)[GalNAc(a1-3)]Gal(b1-4)[Fuc(a1-3)]GlcNAc(b1-3)GalNAc
# Method in brief: as §1
# [14] = molecular target: Fuc(a1-2)[GalNAc(a1-4)]Gal(b1-4)GlcNAc
# Method in brief: as §1
# [15] = molecular target: Fuc(a1-2)[GalNAc(b1-3)]Gal
# Method in brief: as §1
# [16] = molecular target: Fuc(a1-3)GlcNAc
# Method in brief: as §1
# [17] = molecular target: Fuc(a1-3)[Gal(b1-4)]Glc6S
# Method in brief: as §1
# [18] = molecular target: Fuc(a1-3)[Gal(b1-4)]GlcNAc
# Method in brief: as §1
# [19] = molecular target: Fuc(a1-3)[Gal(b1-4)]GlcNAc(b1-2)Man
# Method in brief: as §1
# [20] = molecular target: Fuc(a1-3)[Gal(b1-4)]GlcNAc(b1-2)Man(a1-3)[Fuc(a1-3)[Gal(b1-4)]GlcNAc(b1-2)Man(a1-6)]Man(b1-4)GlcNAc(b1-4)GlcNAc
# Method in brief: as §1
# [21] = molecular target: Fuc(a1-3)[Gal(b1-4)]GlcNAc(b1-2)Man(a1-3)[Fuc(a1-3)[Gal(b1-4)]GlcNAc(b1-2)Man(a1-6)]Man(b1-4)GlcNAc(b1-4)[Fuc(a1-6)]GlcNAc
# Method in brief: as §1
# [22] = molecular target: Fuc(a1-3)[Gal(b1-4)]GlcNAc(b1-3)Gal(b1-3)[Fuc(a1-4)]GlcNAc
# Method in brief: as §1
# [23] = molecular target: Fuc(a1-3)[Gal(b1-4)]GlcNAc(b1-3)Gal(b1-4)[Fuc(a1-3)]GlcNAc
# Method in brief: as §1
# [24] = molecular target: Fuc(a1-3)[Gal(b1-4)]GlcNAc(b1-3)Gal(b1-4)[Fuc(a1-3)]GlcNAc(b1-3)Gal(b1-4)[Fuc(a1-3)]GlcNAc
# Method in brief: as §1
# [25] = molecular target: Fuc(a1-3)[Gal(b1-4)]GlcNAc(b1-3)GalNAc
# Method in brief: as §1
# [26] = molecular target: Fuc(a1-3)[Gal(b1-4)]GlcNAc(b1-6)GalNAc
# Method in brief: as §1
# [27] = molecular target: Fuc(a1-3)[Gal(b1-4)]GlcNAc(b1-6)[Gal(b1-3)GlcNAc(b1-3)]Gal(b1-4)Glc
# Method in brief: as §1
# [28] = molecular target: Fuc(a1-3)[Gal(b1-4)]GlcNAc6S
# Method in brief: as §1
# [29] = molecular target: Fuc(a1-3)[Gal3S(b1-4)]Glc
# Method in brief: as §1
# [30] = molecular target: Fuc(a1-3)[Gal3S(b1-4)]GlcNAc
# Method in brief: as §1
# [31] = molecular target: Fuc(a1-3)[Gal3S(b1-4)]GlcNAc6S
# Method in brief: as §1
# [32] = molecular target: Fuc(a1-3)[GalNAc(b1-4)]GlcNAc
# Method in brief: as §1
# [33] = molecular target: Fuc(a1-3)[GalNAc(b1-4)]GlcNAc6S
# Method in brief: as §1
# [34] = molecular target: Fuc(a1-4)GlcNAc
# Method in brief: as §1
# [35] = molecular target: Fuc(b1-3)GlcNAc
# Method in brief: as §1
# [36] = molecular target: Gal(a1-2)Gal
# Method in brief: as §1
# [37] = molecular target: Gal(a1-3)Gal
# Method in brief: as §1
binder,measurement,setting,value
B1,glycan array binding signal (z-score),[1],-0.446
same,glycan array binding signal (z-score),[2],-0.344
same,glycan array binding signal (z-score),[3],-0.434
same,glycan array binding signal (z-score),[4],-0.48
same,glycan array binding signal (z-score),[5],4.57
same,glycan array binding signal (z-score),[6],-0.28
same,glycan array binding signal (z-score),[7],-0.304
same,glycan array binding signal (z-score),[8],-0.133
same,glycan array binding signal (z-score),[9],-0.467
same,glycan array binding signal (z-score),[10],-0.439
same,glycan array binding signal (z-score),[11],1.14
same,glycan array binding signal (z-score),[12],0.228
same,glycan array binding signal (z-score),[13],0.648
same,glycan array binding signal (z-score),[14],-0.15
same,glycan array binding signal (z-score),[15],-0.236
same,glycan array binding signal (z-score),[16],-0.379
same,glycan array binding signal (z-score),[17],-0.177
same,glycan array binding signal (z-score),[18],-0.358
same,glycan array binding signal (z-score),[19],-0.324
same,glycan array binding signal (z-score),[20],0.644
same,glycan array binding signal (z-score),[21],2.66
same,glycan array binding signal (z-score),[22],-0.43
same,glycan array binding signal (z-score),[23],0.278
same,glycan array binding signal (z-score),[24],-0.444
same,glycan array binding signal (z-score),[25],-0.268
same,glycan array binding signal (z-score),[26],3.86
same,glycan array binding signal (z-score),[27],-0.384
same,glycan array binding signal (z-score),[28],-0.365
same,glycan array binding signal (z-score),[29],-0.379
same,glycan array binding signal (z-score),[30],-0.398
same,glycan array binding signal (z-score),[31],-0.339
same,glycan array binding signal (z-score),[32],-0.18
same,glycan array binding signal (z-score),[33],-0.386
same,glycan array binding signal (z-score),[34],1.29
same,glycan array binding signal (z-score),[35],-0.152
same,glycan array binding signal (z-score),[36],-0.441
same,glycan array binding signal (z-score),[37],-0.264
